The source of these data is paper PMC10199079, “ERK and USP5 govern PD-1 homeostasis via deubiquitination to modulate tumor immunotherapy” (Nature Communications, 2023).

The chains behind the UniProt entries cited, without tags or fusion partners. Where a name states a change or a piece, a line headed by the entry shows the natural chain unless it says otherwise. A line that says so, or that is headed by a name, gives the form on record, which may keep a tag or linker. Residues count along the entry.
UniProt Q15116: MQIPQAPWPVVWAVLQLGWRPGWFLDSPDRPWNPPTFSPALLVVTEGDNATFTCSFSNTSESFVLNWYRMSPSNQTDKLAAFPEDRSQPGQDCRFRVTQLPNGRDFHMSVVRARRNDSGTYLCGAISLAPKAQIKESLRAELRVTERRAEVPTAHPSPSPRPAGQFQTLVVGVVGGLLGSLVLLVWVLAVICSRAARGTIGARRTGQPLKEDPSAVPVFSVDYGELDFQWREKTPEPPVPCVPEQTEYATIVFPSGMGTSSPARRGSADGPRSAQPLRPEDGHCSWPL
PD-1-cHA T234A (Q15116, form named): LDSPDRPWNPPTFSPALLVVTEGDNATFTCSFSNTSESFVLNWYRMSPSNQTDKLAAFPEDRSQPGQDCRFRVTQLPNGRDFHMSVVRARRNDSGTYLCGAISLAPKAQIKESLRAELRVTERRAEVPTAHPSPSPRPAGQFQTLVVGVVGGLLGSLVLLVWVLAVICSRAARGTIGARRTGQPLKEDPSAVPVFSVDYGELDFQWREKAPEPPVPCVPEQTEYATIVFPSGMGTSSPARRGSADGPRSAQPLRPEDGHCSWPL
UniProt P45974: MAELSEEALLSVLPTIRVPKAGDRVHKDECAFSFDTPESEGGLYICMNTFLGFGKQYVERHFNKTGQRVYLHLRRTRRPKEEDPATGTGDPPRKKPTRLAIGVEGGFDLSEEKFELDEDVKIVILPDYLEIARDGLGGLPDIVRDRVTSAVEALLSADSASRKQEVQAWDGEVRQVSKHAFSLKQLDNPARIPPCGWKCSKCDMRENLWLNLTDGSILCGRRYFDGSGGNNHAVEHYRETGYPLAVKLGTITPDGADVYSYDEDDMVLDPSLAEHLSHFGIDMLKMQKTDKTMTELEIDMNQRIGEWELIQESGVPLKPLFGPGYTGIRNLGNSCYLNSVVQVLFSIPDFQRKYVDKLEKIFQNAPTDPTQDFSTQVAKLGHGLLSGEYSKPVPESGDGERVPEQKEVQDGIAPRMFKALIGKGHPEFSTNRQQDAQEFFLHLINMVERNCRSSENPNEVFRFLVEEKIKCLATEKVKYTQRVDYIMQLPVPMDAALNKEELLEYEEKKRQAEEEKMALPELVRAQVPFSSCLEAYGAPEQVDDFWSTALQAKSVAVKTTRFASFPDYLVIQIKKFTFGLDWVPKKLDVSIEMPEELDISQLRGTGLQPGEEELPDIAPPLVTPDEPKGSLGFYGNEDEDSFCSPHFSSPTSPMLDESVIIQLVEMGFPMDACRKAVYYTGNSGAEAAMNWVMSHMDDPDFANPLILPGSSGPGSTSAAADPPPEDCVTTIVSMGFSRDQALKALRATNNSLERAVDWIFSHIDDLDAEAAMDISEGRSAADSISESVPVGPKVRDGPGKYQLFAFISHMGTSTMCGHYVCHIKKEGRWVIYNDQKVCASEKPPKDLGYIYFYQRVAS
UniProt Q02242, residues 25-288: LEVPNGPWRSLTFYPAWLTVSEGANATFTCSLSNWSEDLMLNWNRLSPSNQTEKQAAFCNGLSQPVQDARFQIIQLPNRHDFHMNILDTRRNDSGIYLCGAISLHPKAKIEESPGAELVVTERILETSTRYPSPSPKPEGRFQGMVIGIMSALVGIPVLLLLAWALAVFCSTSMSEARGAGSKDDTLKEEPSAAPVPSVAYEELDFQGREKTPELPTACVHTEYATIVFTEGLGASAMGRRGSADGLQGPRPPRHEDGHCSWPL
UniProt P56399: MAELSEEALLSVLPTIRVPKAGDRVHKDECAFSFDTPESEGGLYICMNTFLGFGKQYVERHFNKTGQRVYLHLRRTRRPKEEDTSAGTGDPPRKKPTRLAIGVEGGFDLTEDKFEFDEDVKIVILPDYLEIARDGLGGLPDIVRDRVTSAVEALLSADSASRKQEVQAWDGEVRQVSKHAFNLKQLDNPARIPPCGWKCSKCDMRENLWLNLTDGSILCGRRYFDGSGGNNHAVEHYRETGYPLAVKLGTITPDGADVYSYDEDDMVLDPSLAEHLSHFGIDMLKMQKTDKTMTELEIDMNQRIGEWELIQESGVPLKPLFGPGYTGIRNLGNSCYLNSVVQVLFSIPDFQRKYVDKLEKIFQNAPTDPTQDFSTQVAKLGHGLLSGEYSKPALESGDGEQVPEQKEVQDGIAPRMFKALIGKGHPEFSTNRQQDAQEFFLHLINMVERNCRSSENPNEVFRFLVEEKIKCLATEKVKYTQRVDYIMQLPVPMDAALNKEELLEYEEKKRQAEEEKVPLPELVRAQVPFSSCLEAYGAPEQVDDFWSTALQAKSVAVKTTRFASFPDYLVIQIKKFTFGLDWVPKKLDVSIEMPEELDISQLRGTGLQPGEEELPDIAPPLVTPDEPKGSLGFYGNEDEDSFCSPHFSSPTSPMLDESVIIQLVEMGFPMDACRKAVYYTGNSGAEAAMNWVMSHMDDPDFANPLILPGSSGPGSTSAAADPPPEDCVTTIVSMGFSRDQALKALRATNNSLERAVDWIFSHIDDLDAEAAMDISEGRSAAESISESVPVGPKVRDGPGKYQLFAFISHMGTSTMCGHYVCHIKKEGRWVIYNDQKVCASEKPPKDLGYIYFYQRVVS
UniProt P27361: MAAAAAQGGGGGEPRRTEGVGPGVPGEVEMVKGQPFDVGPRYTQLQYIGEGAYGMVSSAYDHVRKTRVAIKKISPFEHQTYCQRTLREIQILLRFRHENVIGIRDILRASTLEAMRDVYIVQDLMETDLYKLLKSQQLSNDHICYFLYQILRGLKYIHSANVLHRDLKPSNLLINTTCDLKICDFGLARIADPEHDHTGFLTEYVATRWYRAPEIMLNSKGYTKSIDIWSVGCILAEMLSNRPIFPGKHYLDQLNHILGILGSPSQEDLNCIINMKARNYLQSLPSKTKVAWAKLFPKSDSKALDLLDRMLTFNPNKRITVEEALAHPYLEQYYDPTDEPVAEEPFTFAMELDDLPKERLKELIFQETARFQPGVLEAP
UniProt P28482: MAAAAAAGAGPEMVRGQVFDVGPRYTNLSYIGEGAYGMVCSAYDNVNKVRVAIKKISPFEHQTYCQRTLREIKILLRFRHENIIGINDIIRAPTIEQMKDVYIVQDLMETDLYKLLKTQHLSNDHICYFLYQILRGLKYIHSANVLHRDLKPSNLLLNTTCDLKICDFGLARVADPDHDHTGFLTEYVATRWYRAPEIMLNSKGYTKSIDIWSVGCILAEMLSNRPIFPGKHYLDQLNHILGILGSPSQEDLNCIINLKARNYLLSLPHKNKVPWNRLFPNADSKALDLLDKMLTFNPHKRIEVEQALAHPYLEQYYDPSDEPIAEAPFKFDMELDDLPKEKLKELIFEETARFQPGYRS

The target of one test is PD-1-cHA T234A (human) (UniProt Q15116). In words: co-IP; HEK293T cells co-transfected with indicated constructs; lysed in EBC buffer, anti-HA or anti-Flag beads 4 h at 4 °C, washed with NETN buffer, immunoblot; some panels with 10 μM MG132, co-expressed ERK, KRAS or BRAF, or Trametinib (0.5 or 1 μM). For orientation: A western blot detects proteins with antibodies after separation by electrophoresis.

For test [1], the target named is PD-1-cHA (human) (UniProt Q15116). The description is as above.
The target in another test is GST-USP5 (human) (UniProt P45974). Briefly: pull-down; 3 μg GST-USP5 WT or truncates (or GST) immobilized on glutathione-Sepharose, incubated with HA-PD-1 WT or truncates from HEK293T cell lysates at 4 °C for 3 h, washed five times with NETN buffer; one panel with lysate of cells treated with 1 μM Ulixertinib; only the target purified.
The target in test [2] is PD-1, endogenous (mouse primary CD3+ T cells) (mouse (endogenous in primary CD3+ T cells)) (UniProt Q02242). In words: co-IP; anti-PD-1 IP of endogenous proteins from Jurkat (PHA 150 ng/mL, 3 days), MOLT-4 and mouse primary CD3+ T cells (anti-CD3/CD28 2 μg/mL, 48 h); one MOLT-4 panel with Trametinib and MG132.
The target in test [3] is PD-1, endogenous (human T cell lines) (human (endogenous in Jurkat, MOLT-4)) (UniProt Q15116). The description is as above.
In test [4] the target is PD-1-cHA (human) (UniProt Q15116). Briefly: pull-down; GST pull-down precipitates from HEK293T cell lysates transfected with indicated constructs (Fig. 3j); which partner carried GST is not shown.

Results are given in words; binding and its absence hold for the method and conditions named. Binding seen in cells or lysates may run through a third protein. Some entries that bind do so weakly or less than the wild type.

For “Myc-USP5 (from UniProt P45974 1-858) (enzyme)”, the binding entry with PD-1-cHA T234A (human) and in the test with PD-1-cHA (human) [1] was “binds” throughout. Take “PD-1-ΔC192-288 (from UniProt Q15116 25-191) (domain or fragment)”: the binding result with GST-USP5 (human) was “no binding (tested: 3 μg GST-USP5)”. Still for that read-out and setting: the value for “PD-1-ΔC241-288 (from UniProt Q15116 25-240) (domain or fragment)” was “binds”; that for “PD-1-cHA T234A (from UniProt Q15116 25-288) (receptor)” was “binds”.

As to “Usp5, endogenous (mouse primary CD3+ T cells) (from UniProt P56399 1-858) (enzyme)”, the binding entry in test [2] is listed as “binds”. “ubiquitin-specific protease 5 (USP5), endogenous (from UniProt P45974 1-858) (enzyme)”: the binding entry in test [3] is “binds”. In the case of “ERK1 (from UniProt P27361 1-379) (enzyme)”, the binding result with PD-1-cHA (human) [1] and with PD-1-cHA (human) [4] was “binds” throughout.

As to “PD-1-cHA (from UniProt Q15116 25-288) (receptor)”, in the test with GST-USP5 (human), the binding entry was “binds”.

“ERK2 (from UniProt P28482 1-360) (enzyme)”: the binding entry with PD-1-cHA (human) [1] and with PD-1-cHA (human) [4] was “binds” in each case.
